Binding signal data for 109 sequences are collected here from paper PMC6212790.

Some of the results follow. At the low end of the ranking the order means little.

The assay concerns the target T1, GST-Rok (full length) (UniProt O34857).
T1 sequence: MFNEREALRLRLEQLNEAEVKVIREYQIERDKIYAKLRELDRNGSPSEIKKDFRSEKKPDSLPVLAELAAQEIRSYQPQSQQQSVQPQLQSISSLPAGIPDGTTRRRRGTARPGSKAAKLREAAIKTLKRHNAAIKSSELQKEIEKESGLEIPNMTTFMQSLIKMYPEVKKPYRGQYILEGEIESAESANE
As to the kind of experiment: protein binding microarray.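 Also: rank score from −0.5 (least bound) to 0.5 (best bound).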 The conditions noted are these: Rok is a gene silencer of Bacillus subtilis; high values mean tight binding; most listed sequences are background and not binding sites; double strand, one strand shown.
For CCGAATGA, the binding signal stood at 0.0453 E-score.

CCACTGCC gave a binding signal of -0.199 E-score.

TAGCTTGA displayed a binding signal of 0.12 E-score.

Consider GGGGCGTA, for which the binding signal was -0.321 E-score.

As to GGCGGATA, the binding signal was -0.136 E-score.

The sequence CAGGGCTC showed a binding signal of -0.282 E-score.

In the case of ACATCGGT, the binding signal is -0.0358 E-score.

Sequence AGTCTTTC displayed a binding signal of -0.0288 E-score.

In turn, CGCTGGAG returned a binding signal of -0.0681 E-score.

For the sequence CCGTTTAG, the binding signal is -0.143 E-score.

GACAGTCA had a binding signal of -0.00771 E-score.

For the sequence ATGGTGTA, the binding signal was 0.264 E-score.

For AAAAACTC, the binding signal is 0.0197 E-score.

In turn, GATTTCAC showed a binding signal of -0.148 E-score.

Consider AACAACGC, for which the binding signal was determined as 0.243 E-score.

As for GCTCATGA, the binding signal is -0.144 E-score.

In turn, GGTGAGTA returned a binding signal of 0.13 E-score.

CGGGTGTA had a binding signal of -0.149 E-score.

Turning to ACTCATTG, the binding signal amounted to 0.241 E-score.

For CGGAACAC, the binding signal was -0.154 E-score.

Sequence AACCGACT came in with a binding signal of -0.0188 E-score.

In turn, AACTCAGA showed a binding signal of 0.108 E-score.

GCGGTTGA gave a binding signal of -0.212 E-score.

Consider ATGACACA, for which the binding signal is 0.106 E-score.

For the sequence GCTGCCCC, the binding signal was -0.344 E-score.

The sequence ATTATGCC showed a binding signal of 0.099 E-score.

ACAGATAC displayed a binding signal of 0.221 E-score.

The sequence GAAGCGCA registered a binding signal of -0.153 E-score.

Sequence CCCCGAAA showed a binding signal of -0.2 E-score.

CACGCTAC showed a binding signal of 0.118 E-score.

In the case of AGCGAAGA, the binding signal is -0.0213 E-score.

In turn, CTAAGGCA registered a binding signal of 0.0902 E-score.

For the sequence CTAATTAG, the binding signal was determined as 0.375 E-score.

For ACACATCC, the binding signal was -0.13 E-score.

GCGAAATA came in with a binding signal of 0.173 E-score.

As to CGTTAACC, the binding signal is -0.112 E-score.

Consider ATGAGGCC, for which the binding signal is -0.166 E-score.

For the sequence GCAACCGA, the binding signal was 0.0352 E-score.

The sequence CGTTGGGA returned a binding signal of -0.188 E-score.

For TCCCGTCA, the binding signal is -0.264 E-score.

In turn, CAAGTTCA gave a binding signal of 0.099 E-score.

As for GCTGTGGA, the binding signal is -0.12 E-score.

In turn, ATTTAGAC yielded a binding signal of 0.0629 E-score.

AGATCGCG: the binding signal was 0.000221 E-score.

In the case of GCGCTGTA, the binding signal was determined as 0.162 E-score.

For the sequence ACGGTCAG, the binding signal was -0.115 E-score.

GAGGCACA came in with a binding signal of -0.128 E-score.

As to GTTTTTCA, the binding signal is -0.177 E-score.

On to TCTCCCCA, for which the binding signal was -0.126 E-score.

The sequence ACGCCAGG gave a binding signal of -0.146 E-score.

CATGTGAG: the binding signal is -0.0984 E-score.

In turn, CGAACACC gave a binding signal of -0.0633 E-score.

ATTCCATG showed a binding signal of 0.168 E-score.

On to CGGCCGCC, for which the binding signal is -0.38 E-score.

Take AAGAGCCA: the binding signal is -0.223 E-score.

Regarding CATTCTCC, the binding signal is -0.0961 E-score.

The sequence CGGTAAAC registered a binding signal of 0.184 E-score.

ACGCAAAG returned a binding signal of -0.0351 E-score.

Sequence GTTTCAGA registered a binding signal of 0.0234 E-score.

In turn, ACGATGTG came in with a binding signal of 0.0494 E-score.

The sequence CATTGGCC yielded a binding signal of -0.337 E-score.

As to AAAGTTCT, the binding signal was determined as 0.0582 E-score.

GGTAGCGA returned a binding signal of 0.0576 E-score.

In turn, ATTTTAGA had a binding signal of 0.168 E-score.

The sequence GAAGCGCC displayed a binding signal of -0.244 E-score.

On to GACCCCGC, for which the binding signal is -0.344 E-score.

Regarding ATCTTGTC, the binding signal is 0.116 E-score.

Consider CGTACACA, for which the binding signal amounted to 0.16 E-score.

As to CTTCCACC, the binding signal was -0.268 E-score.

With AAATGTTA, the binding signal is 0.185 E-score.

Turning to CCGACAGC, the binding signal was -0.0139 E-score.

In turn, GGGGAGAC showed a binding signal of -0.262 E-score.

In turn, CTGACAGA gave a binding signal of 0.0624 E-score.

For the sequence ATATAATC, the binding signal is 0.152 E-score.

AGCTGCGA returned a binding signal of -0.00607 E-score.

In turn, CAACATGA came in with a binding signal of 0.0494 E-score.

For AGTAGCCA, the binding signal is -0.0245 E-score.

CTGGGCTA came in with a binding signal of 0.0101 E-score.

In the case of AAAGAAGC, the binding signal is -0.0244 E-score.

As to CCTATCCA, the binding signal is -0.0329 E-score.

For the sequence CAGTCTCA, the binding signal is -0.00808 E-score.

As to GACAACCC, the binding signal was -0.241 E-score.

As to ATGGAGCC, the binding signal is -0.237 E-score.

CTGTAGAC came in with a binding signal of 0.117 E-score.

AGGGTAGC: the binding signal was -0.0989 E-score.

The sequence AACTTGCT had a binding signal of 0.079 E-score.

As to ATAAGGGA, the binding signal is -0.112 E-score.

With ACGGCTAT, the binding signal turned out to be 0.0117 E-score.

With GCGACTAA, the binding signal is -0.128 E-score.

Consider GGTAGAAC, for which the binding signal came out at 0.374 E-score.

As for AAGTGCAG, the binding signal was determined as 0.000661 E-score.

AATAGCCT came in with a binding signal of 0.0206 E-score.

The sequence ACACGTGG gave a binding signal of -0.00298 E-score.

The sequence CGAAGTGA gave a binding signal of -0.0568 E-score.

AGTGATAT showed a binding signal of 0.299 E-score.

In the case of TATGAGCA, the binding signal is 0.00785 E-score.

Turning to CTTGTCAC, the binding signal was -0.236 E-score.

In turn, CCAAGCTC yielded a binding signal of -0.269 E-score.

AAGTCAGG displayed a binding signal of 0.0364 E-score.

CCTCCTAG: the binding signal is -0.305 E-score.

In turn, CAGCGCCA showed a binding signal of -0.299 E-score.

As for AAGGCAGA, the binding signal is -0.261 E-score.

In turn, ACCTGAGG registered a binding signal of -0.131 E-score.

In turn, TCTAGGCA yielded a binding signal of -0.0401 E-score.

For the sequence ACTAACGG, the binding signal came out at 0.269 E-score.

In turn, CCGCATAC came in with a binding signal of 0.0121 E-score.

In the case of CGCTATTA, the binding signal is 0.211 E-score.

Regarding GATAGCCA, the binding signal was -0.128 E-score.

On to CGCGTCCC, for which the binding signal is -0.235 E-score.
